# This is one part of the list.
# Assays:
# [1] = system: HSkMC (human skeletal muscle cells); assay: cytotoxicity call (relative viability < 0.9); settings: 10 µM
# [2] = system: HepG2; assay: cytotoxicity call (relative viability < 0.9); settings: 10 µM
# [3] = system: S. aureus RN4220; assay: growth inhibition call (relative growth <= 0.2); settings: 50 µM
Structure (SMILES),cytotoxicity call [1],cytotoxicity call [2],growth inhibition call [3]
C[C@@H]1CN([C@@H](C)CO)C(=O)c2cccc(NS(C)(=O)=O)c2O[C@H]1CN(C)S(=O)(=O)c1ccccc1,inactive,inactive,inactive
Cc1ccc(S(=O)(=O)Nc2ccc3c(c2)C(=O)N([C@H](C)CO)C[C@@H](C)[C@H](CN(C)C(=O)Nc2ccc(C(F)(F)F)cc2)OCCCC[C@H](C)O3)cc1,inactive,inactive,inactive
C[C@H]1CN([C@@H](C)CO)C(=O)Cc2cc(NC(=O)Cc3cn(C)c4ccccc34)ccc2O[C@H]1CN(C)Cc1ccc(Oc2ccccc2)cc1,active,active,inactive
COc1ccc(CN(C)C[C@H]2OCCCC[C@@H](C)Oc3ccc(NS(=O)(=O)c4cccs4)cc3C(=O)N([C@@H](C)CO)C[C@H]2C)cc1,inactive,inactive,inactive
Cc1noc(C)c1S(=O)(=O)N(C)C[C@H]1Oc2ccc(NC(=O)c3ccncc3)cc2CC(=O)N([C@H](C)CO)C[C@H]1C,inactive,inactive,inactive
C[C@H]1CN([C@@H](C)CO)C(=O)Cc2cc(NS(=O)(=O)c3ccc(Cl)cc3)ccc2O[C@@H]1CN(C)C,inactive,active,inactive
Cc1cc(C(=O)Nc2cccc3c2O[C@H](CN(C)S(=O)(=O)c2ccc(F)cc2)[C@@H](C)CN([C@H](C)CO)C3=O)n(C)n1,inactive,inactive,inactive
C[C@H](CO)N1C[C@H](C)[C@H](CN(C)S(C)(=O)=O)Oc2c(NC(=O)Nc3ccc(C(F)(F)F)cc3)cccc2C1=O,inactive,inactive,inactive
CC(C)(C)C(=O)C[n+]1ccc(C(N)=O)cc1,inactive,inactive,inactive
O=C(O)c1cncnc1N1CCCC1,inactive,inactive,inactive
COc1ccc(CNC(=O)C[C@@H]2CC[C@@H]3[C@@H](COc4ccc(NC(=O)C(C)C)cc4C(=O)N3C)O2)cc1,inactive,inactive,inactive
C[C@@H]1CN([C@@H](C)CO)C(=O)Cc2cc(NC(=O)Cc3ccccc3)ccc2O[C@@H]1CN(C)S(=O)(=O)c1cccs1,inactive,active,inactive
C[C@H](CO)N1C[C@H](C)[C@@H](CN(C)S(C)(=O)=O)Oc2ccc(NC(=O)Nc3ccc(C(F)(F)F)cc3)cc2C1=O,inactive,inactive,inactive
CCCCC[C@@H](C[C@@H](CC(=O)O)O[C@H]1O[C@@H](CO)[C@@H](O)[C@@H](O)[C@@H]1O)OC(=O)C[C@H](O)C[C@H](CCCCC)O[C@H]1O[C@@H](CO)[C@@H](O)[C@@H](O)[C@@H]1O,inactive,inactive,inactive
C[C@@H]1CN([C@@H](C)CO)C(=O)c2cc(C#C[C@@H](C)O)cnc2O[C@H]1CN(C)C(=O)Nc1ccc(C(F)(F)F)cc1,inactive,inactive,inactive
C[C@H](CO)N1C[C@H](C)[C@@H](CN(C)S(=O)(=O)c2cccs2)Oc2ccc(NS(=O)(=O)c3ccc(F)cc3)cc2C1=O,inactive,inactive,inactive
C[C@H]1CN([C@@H](C)CO)C(=O)CCCn2nncc2CO[C@H]1CN(C)S(=O)(=O)c1ccccc1C#N,inactive,inactive,inactive
C[C@H](CO)N1C[C@H](C)[C@H](CN(C)S(=O)(=O)c2cccs2)Oc2ccc(NC(=O)CCCN(C)C)cc2C1=O,inactive,inactive,inactive
COC(=O)c1c(C(=O)OC)c2n(c(=O)c1-c1ccccc1)[C@@H]1c3ccccc3O[C@@](COCc3ccc(OC)cc3)([C@@H]1COC(=O)c1ccccc1)N2C,inactive,inactive,inactive
CNC(=O)CN1CCOC[C@]2(CCCN(C(C)=O)C2)C1,inactive,inactive,inactive
Cc1noc(C)c1S(=O)(=O)Nc1ccc2c(c1)C(=O)N([C@H](C)CO)C[C@@H](C)[C@H](CN(C)S(=O)(=O)c1ccc(Cl)cc1)O2,inactive,inactive,inactive
C=CCN([C@@H](Cc1ccccc1)[C@@H](O)c1cn(CCCNC(=O)C(=O)NC)nn1)S(=O)(=O)c1ccccc1[N+](=O)[O-],inactive,inactive,inactive
COC(=O)c1c(-c2c(Cl)cccc2Cl)noc1-c1cnn(-c2cccc(Cl)c2)c1C(F)(F)F,inactive,inactive,inactive
CCOC(=O)c1c(CN2CCN(c3ccccc3)CC2)n(C2CCCCC2)c2cc(Br)c(O)cc12,active,inactive,inactive
C[C@H](CO)N1C[C@H](C)[C@H](CN(C)S(=O)(=O)c2ccccc2F)Oc2ncc(C#Cc3cccnc3)cc2C1=O,inactive,inactive,inactive
NCCn1cccc1,inactive,inactive,inactive
Cc1ccc(S(=O)(=O)N(C)C[C@H]2OCCCC[C@H](C)Oc3ccc(NC(=O)c4ccccc4)cc3C(=O)N([C@H](C)CO)C[C@H]2C)cc1,inactive,inactive,inactive
Cc1noc(C)c1S(=O)(=O)Nc1ccc2c(c1)C(=O)N([C@@H](C)CO)C[C@@H](C)[C@H](CN(C)Cc1ccccc1)OCCCC[C@@H](C)O2,inactive,inactive,inactive
COc1ccc2c3c([nH]c2c1)[C@@H](CO)N(CC1CCCCC1)C[C@]13CCN(CC1)C(=O)NC1CCCC1,inactive,inactive,inactive

# — the antibiotic and cytotoxicity screens of Wong et al. (2023)
